According to patent US4904590A, “Antibiotic A80915 and process for its production” (Eli Lilly and Company, priority 1988, dated 1990):
In brackets after ≈: the same amount, converted by molar mass.

Tested on: Staphylococcus aureus S13E
Type: cell-based
Description: The A80915 antibiotics inhibit the growth of bacteria which are pathogenic to animal life. […] The MIC's in Table III were determined by conventional agar-dilution assays.

SMILES	MIC [µg/mL]
C=C1CCC(Cl)C(C)(C)C1CC12OC(C)(C)C(Cl)CC1(Cl)C(=O)c1c(cc(O)c(C)c1O)C2=O (centres unmarked) [A80915A]	2 (≈ 3.77 µM)
C=C1CCC(Cl)C(C)(C)C1CC12OC(C)(C)C(Cl)CC1(Cl)C(=O)c1c(O)c(C)c([O-])c([N+]#N)c1C2=O (centres unmarked) [A80915B]	2 (≈ 3.6 µM)
Cc1c(O)cc2c(c1O)C(=O)[C@@]1(Cl)C[C@@H](Cl)C(C)(C)O[C@@]1(C[C@H]1C(C)(C)[C@@H](Cl)CC[C@]1(C)O)C2=O [A80915C]	> 128
Cc1c([O-])c([N+]#N)c2c(c1O)C(=O)[C@@]1(Cl)C[C@@H](Cl)C(C)(C)O[C@@]1(C[C@H]1C(C)(C)[C@@H](Cl)CC[C@]1(C)O)C2=O [A80915D]	1 (≈ 1.74 µM)
C=C1CCC(Cl)C(C)(C)C1CC12OC(C)(C)C(Cl)C=C1C(=O)c1c(cc(O)c(C)c1O)C2=O (centres unmarked) [Compound 5]	4 (≈ 8.11 µM)
